In patent US20210403583A1 (ELIXIRON IMMUNOTHERAPEUTICS HONG KONG, published 2021):
Read-outs that look alike come from different tables or passages of the source.

T1: cynomolgus CSF1R expressed on 293F cells (cynomolgus monkey, UniProt P07333 20-972 (human entry))
T1 construct: also called cynoCSF1R
T1 chain: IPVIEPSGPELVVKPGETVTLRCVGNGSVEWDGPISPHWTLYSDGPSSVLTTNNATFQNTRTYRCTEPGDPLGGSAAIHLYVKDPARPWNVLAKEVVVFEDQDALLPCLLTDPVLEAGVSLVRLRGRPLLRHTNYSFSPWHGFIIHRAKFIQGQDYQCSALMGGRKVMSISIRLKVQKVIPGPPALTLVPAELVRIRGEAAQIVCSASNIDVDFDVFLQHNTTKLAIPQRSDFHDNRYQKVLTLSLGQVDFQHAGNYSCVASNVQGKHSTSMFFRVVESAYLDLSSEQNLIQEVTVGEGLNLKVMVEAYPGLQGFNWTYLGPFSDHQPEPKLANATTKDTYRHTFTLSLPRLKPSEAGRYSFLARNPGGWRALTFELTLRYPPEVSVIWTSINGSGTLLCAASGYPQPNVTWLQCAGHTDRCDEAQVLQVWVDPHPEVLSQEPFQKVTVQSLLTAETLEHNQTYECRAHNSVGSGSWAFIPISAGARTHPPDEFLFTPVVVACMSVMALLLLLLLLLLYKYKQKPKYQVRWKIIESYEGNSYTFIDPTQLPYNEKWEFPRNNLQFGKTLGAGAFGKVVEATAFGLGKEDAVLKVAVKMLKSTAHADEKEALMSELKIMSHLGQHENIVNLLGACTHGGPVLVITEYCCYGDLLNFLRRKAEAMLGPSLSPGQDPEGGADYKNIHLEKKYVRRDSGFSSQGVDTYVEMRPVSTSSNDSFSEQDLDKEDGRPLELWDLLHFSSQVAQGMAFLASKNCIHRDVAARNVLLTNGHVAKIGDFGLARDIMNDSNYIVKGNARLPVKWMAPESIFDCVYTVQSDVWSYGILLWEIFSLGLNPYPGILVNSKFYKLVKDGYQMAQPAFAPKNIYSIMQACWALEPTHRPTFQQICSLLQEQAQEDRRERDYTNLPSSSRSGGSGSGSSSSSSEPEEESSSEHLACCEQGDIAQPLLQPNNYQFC

T2: recombinant human IL-10Ra fusion protein (R&D Systems) (human, UniProt Q13651 22-235)
T2 sequence (looked up): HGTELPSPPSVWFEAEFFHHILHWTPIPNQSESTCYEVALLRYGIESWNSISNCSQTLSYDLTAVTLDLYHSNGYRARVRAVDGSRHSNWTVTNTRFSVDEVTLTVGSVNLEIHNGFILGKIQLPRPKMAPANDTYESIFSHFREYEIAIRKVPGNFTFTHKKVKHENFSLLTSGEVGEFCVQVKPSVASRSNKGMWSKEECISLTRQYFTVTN

B1: chimeric anti-CSF1R antibody 6M6 (antibody, human IgG1, kappa)
heavy: DVQLQQSGTVLARPGASVKMSCKASGYTFTSYWIHWVKQRPGQGLEWIGAIYPGNRDTNYNQKFKGKAKLTTVTSASTAYMELSSLTNEDSAVYYCTGAFAGYYDWYFDVWGAGTTVTVSS[letters of human IgG1 constant region left out]
light: DIVLTQSPASLAVSLGQRATISCKASQGVDYAGDSYMNWYQQKPGQPPKLLIYVASDLDSGIPARFSGSGSGTNFTLNIHPVEEEDAATYYCQQSYEDPRTFGGGTTLEIQRTVAAPSVFIFPPSDEQLKSGTASVVCLLNNFYPREAKVQWKVDNALQSGNSQESVTEQDSKDSTYSLSSTLTLSKADYEKHKVYACEVTHQGLSSPVTKSFNRGEC
B2: chimeric anti-CSF1R/IL10 fusion protein 6M6/IL10 (antibody, human IgG1, kappa)
heavy: DVQLQQSGTVLARPGASVKMSCKASGYTFTSYWIHWVKQRPGQGLEWIGAIYPGNRDTNYNQKFKGKAKLTTVTSASTAYMELSSLTNEDSAVYYCTGAFAGYYDWYFDVWGAGTTVTVSS[letters of human IgG1 constant region left out]LGGGGSGGGGSGGGGSPGQGTQSENSCTHFPGNLPNMLRDLRDAFSRVKTFFQMKDQLDNLLLKESLLEDFKGYLGCQALSEMIQFYLEEVMPQAENQDPDIKAHVNSLGENLKTLRLRLRRCHRFLPCENKSKAVEQVKNAFNKLQEKGIYKAMSEFDIFINYIEAYMTMKIRN
light: B1 light
notes: Antibody-cytokine fusion: human IL10 fused by a linker to the C-terminus of the heavy chain; also called 6M6/1L10

Tests used:
[1] = biological target: T3, human CSF1R expressed on cells (293F/huCSF1R stable cells; AML5 cells; human monocytes and macrophages) (human, UniProt P07333 20-972); test: cell-based or functional assay
[2] = biological target: T3, human CSF1R expressed on cells …; test: cell-based or functional assay; remark: listed apart in the source
[3] = biological target: T3, human CSF1R expressed on cells …; test: cell-based or functional assay; remark: listed apart in the source
[4] = biological target: T3, human CSF1R expressed on cells …; test: cell-based or functional assay; remark: listed apart in the source
[5] = biological target: T4, recombinant human CSF1R-Fc fusion protein (human, UniProt P07333 part only); test: ELISA, coated human CSF1R-Fc (dimer)
T4 construct: probably the same protein; also called CSF1R-Fc (dimer); not shown: Fc part
Method: (§1) Materials and methods: Recombinant human CSF1R-His (Biolegend), or CSF1R-Fc fusion protein, were immobilized on 96 well microtiter plate at a concentration of 1 μg/mL in Coating Solution (SeraCare) overnight at 4° C. The wells were washed with wash solution (0.05% Tween20 in imidazole-buffered saline) and blocked with 1% BSA. Serial dilutions of the antibodies were added to wells. After incubation at 3TC for 1 h, the wells were washed with wash solution. Peroxidase-conjugated goat anti-human kappa light chain antibody (Bethyl) was applied to each well at 3TC for 1 h incubation. After washing, the wells were developed with TMB substrate for 5-10 min at RT and then stopped with 1 N HCl. Thereafter absorbance was measured at 450 nm and 650 nm. The EC50 values were calculated through GraphPad Prism7.

[6] = biological target: T5, recombinant human CSF1R-His (Biolegend) (human, UniProt P07333 part only, limits assumed); test: ELISA, coated human CSF1R-His (monomer)
T5 construct: Bought protein; also called CSF1R-His (monomer); hu-CSF1R; not shown: His tag
Method: as §1

[7] = biological target: T1, cynomolgus CSF1R expressed on 293F cells; test: flow cytometry on 293F cells expressing cynomolgus CSF1R
Description: (§2) Materials and methods: The gene segments encoding full-length human CSF1R amino acid sequence of SEQ ID NO: 70 or the cynomolgus CSF1R amino acid sequence of SEQ ID NO: 71 were obtained using Thermo gene synthesis service and cloned in a mammalian expression vector pCDNA3.4. […] After washing with FACS buffer (2%FBS in PBS), the cells were stained with anti-human IgG—Alexa Fluor 647 and analyzed by Attune NxT Flow Cytometer (Thermo Scientific).

[8] = biological target: T5, recombinant human CSF1R-His (Biolegend); test: BLI (Octet RED96), antibody captured on AHC biosensor, CSF1R-His in solution, 1:1 model
T5 sequence (P07333 20-512 limits assumed): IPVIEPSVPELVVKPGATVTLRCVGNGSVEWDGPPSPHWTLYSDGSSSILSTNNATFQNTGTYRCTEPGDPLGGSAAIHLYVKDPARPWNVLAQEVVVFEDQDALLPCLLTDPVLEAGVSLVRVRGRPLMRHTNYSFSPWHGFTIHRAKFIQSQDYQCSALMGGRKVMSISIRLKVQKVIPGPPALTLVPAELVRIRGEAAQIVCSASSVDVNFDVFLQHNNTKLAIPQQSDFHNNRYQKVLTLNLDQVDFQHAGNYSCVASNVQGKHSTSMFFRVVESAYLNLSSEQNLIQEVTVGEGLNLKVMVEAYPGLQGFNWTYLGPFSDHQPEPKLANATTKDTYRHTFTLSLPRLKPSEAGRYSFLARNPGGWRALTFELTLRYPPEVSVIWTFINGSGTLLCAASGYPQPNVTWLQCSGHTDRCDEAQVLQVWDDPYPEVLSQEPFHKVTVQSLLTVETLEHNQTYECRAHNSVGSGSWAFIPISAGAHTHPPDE
Method: Kinetic rate constants, ka and kd, for binding of 6D4 and 6M6 to CSF1R were measured by Bio-Layer Interferometry (BLI) (ForteBio Octet RED96). The BLI assay was performed using AHC (Anti-hIgG Fc Capture) biosensors (ForteBio) to capture each anti-CSF1R antibody (2 μg/mL) to acquire a 0.5 nm shift and then the biosensors were dipped into varying concentrations (i.e. 0, 0.549, 1.65, 4.94, 14.8, 44.4, 133.3 and 400 nM) of recombinant CSF1R-His protein in running buffer containing PBS-Tween 20 (0.1%), BSA (0.1%). Rate constants were calculated by curve fitting analyses (1:1 Langmuir model) of binding response with a 5-minute association and 15-minute dissociation interaction time.

[9] = biological target: T3, human CSF1R expressed on cells …; test: cell-based or functional assay; remark: listed apart in the source
[10] = biological target: T4, recombinant human CSF1R-Fc fusion …; test: ELISA, coated human CSF1R-Fc
Method: Materials and methods: Recombinant human CSF1R-Fc, or mouse CSF1R-Fc (Sino Biological) were immobilized on 96 well microtiter plate at a concentration of 1 μg/mL in Coating Solution (SeraCare) overnight at 4° C. The wells were washed with wash solution (0.05% Tween20 in imidazole-buffered saline) and blocked with 1% BSA. Serial dilutions of the anti-CSF1R/IL-10 fusion proteins were added to wells. After incubation at 3TC for 1 h, the wells were washed with wash solution. To detect chimeric Ab/IL10 fusions, peroxidase-conjugated goat anti-human kappa light chain antibody (Bethyl) was applied to each well at 3TC for 1 h incubation. To detect AB98 or AB98/1110 fusions, peroxidase-conjugated Goat anti-mouse IgG Fab antibody (Jackson immunoresearch) was applied to each well at 3TC for 1 h incubation. After washing, the wells were developed with TMB substrate for 5-10 min at RT and then stopped with 1 N HCl. Thereafter absorbance was measured at 450 nm and 650 nm.

[11] = biological target: T2, recombinant human IL-10Ra fusion …; test: ELISA, coated human IL-10Ra fusion protein
Method: Materials and methods: Recombinant human IL-10Ra fusion protein (R&D Systems) were immobilized on 96 well microtiter plate at a concentration of 1 μg/ml in Coating Solution (SeraCare) overnight at 4° C. The wells were washed with wash solution (0.05% Tween20 in imidazole-buffered saline) and blocked with 1% BSA. Serial dilutions of Ab/IL-10 fusion proteins were added to wells. After incubation at 37° C. for lhr, the wells were washed with wash solution. Peroxidase-conjugated goat anti-human kappa light chain antibody (Bethyl) was applied to each well at 37° C. for 1 hr incubation. After washing, the wells were developed with TMB substrate for 5-10 min at RT and then stopped with 1 N HCl. Thereafter absorbance was measured at 450 nm and 650 nm. The EC50 value was calculated through GraphPad Prism7.

[12] = biological target: T4, recombinant human CSF1R-Fc fusion …; test: competition ELISA, coated human CSF1R-Fc, competitor biotinylated human CSF1-His 2.5 ug/mL
Method: Materials and methods: Recombinant human CSF1R-Fc or mouse CSF1R-Fc (Sino Biological) fusion protein was immobilized on 96 well microtiter plate at a concentration of 1 μg/mL in Coating Solution (SeraCare) overnight at 4° C. The wells were washed with wash solution and blocked with 1% BSA at RT. Serial dilutions of Ab/IL-10 fusion proteins were added to wells. Then 2.5 ug/mL biotinylated human CSF1-His (Biolegend) or mouse CSF1-His (Sino Biological) was added and incubated for 1 h at 37° C. After washing, Streptavidin-HRP (Jackson ImmunoResearch) was applied to wells at RT for 1 h incubation. After washing, the wells were developed with TMB substrate for 5-10 min at RT and the stopped with 1 N HCl. Thereafter absorbance was measured at 450 nm and 650 nm. The IC₅₀ values were calculated through GraphPad Prism7.

[13] = biological target: T1, cynomolgus CSF1R expressed on 293F cells; test: flow cytometry titration on 293F cells overexpressing cynomolgus CSF1R, anti-human IgG-Alexa Fluor 647
Description: as §2, with “CSF1R” for “CSF1R amino acid sequence of SEQ ID NO: 70”, “or” for “or the”, “CSF1R” for “CSF1R amino acid sequence of SEQ ID NO: 71”, “IgG-Alexa” for “IgG—Alexa”, “N×T” for “NxT”

| Binder | IC50 (M), CSF1-dependent AML5 cell proliferation [1] [M] | IC50 (M), IL-34-dependent AML5 cell proliferation [1] [M] | IC50 (M), CSF1-dependent survival of CD14+ monocytes [2] [M] | IC50 (M), CSF1-dependent survival of macrophages [2] [M] | IC50 (M), CSF1-dependent AML5 cell proliferation [3] [M] | IC50 (M), inhibition of CD14+ monocyte survival (CSF1-dependent) [4] [M] | EC50 [5] [nM] | EC50 [6] [nM] | binding result [7] | koff [8] [s⁻¹] | kon [8] [M⁻¹ s⁻¹] | IC50 (M), inhibition of AML5 cell proliferation (CSF1-dependent) [9] [M] | IC50 (M), inhibition of macrophage survival (CSF1-dependent) [4] [M] | EC50 [10] [nM] | EC50 [11] [nM] | IC50 [12] [nM] | binding result [13] |
| --- | --- | --- | --- | --- | --- | --- | --- | --- | --- | --- | --- | --- | --- | --- | --- | --- | --- |
| B1 | 2.73e-10 | 2.01e-10 | 1.44e-10 | 7.2e-11 | 2.73e-10 | 2.24e-10 | 0.0653 | 0.112 | binds | 0.000223 | 688000 |  |  |  |  |  |  |
| B2 |  |  |  |  |  | 2.82e-10 |  |  |  |  |  | 1.87e-09 | 1.89e-10 | 0.27 | 2.75 | 0.481 | binds |
